PubChem BioAssay AID1461 (National Center for Advancing Translational Sciences (NCATS), 2008)
Hit rate of the full screen: of about 220,000 compounds, about 2,300 (1%) were called active. Inconclusive means that the source gave no clear call. Such entries were picked first, then a sample of the others. Calls follow the shape of the dose curve; as a rule, active = well fitted inhibition curve with a large enough effect; inconclusive = small, poorly fitted or top-dose-only effect, or effect the other way; inactive = no such curve, though single readings can be large or run the other way. Potencies of inconclusive entries are doubtful fits and often do not repeat.

target: Neuropeptide S receptor (Homo sapiens) (UniProt Q6W5P4); assay: qHTS Assay for Antagonists of the Neuropeptide S Receptor: cAMP Signal Transduction; details: CHO-NPSR cells, cAMP TR-FRET, antagonist mode; activity change, negative = inhibition: at 38.3 µM (top of the series) unless noted; also: nearly all actives have a fitted effect of over 50% in size
% is scaled to controls: 0 for no effect and ±100 for the full control effect; potency is read from the fitted curve at half-maximal effect; tags tell the direction and shape of the fitted curve.

Sequence of UniProt Q6W5P4 (Q6W5P4 whole entry, looked up): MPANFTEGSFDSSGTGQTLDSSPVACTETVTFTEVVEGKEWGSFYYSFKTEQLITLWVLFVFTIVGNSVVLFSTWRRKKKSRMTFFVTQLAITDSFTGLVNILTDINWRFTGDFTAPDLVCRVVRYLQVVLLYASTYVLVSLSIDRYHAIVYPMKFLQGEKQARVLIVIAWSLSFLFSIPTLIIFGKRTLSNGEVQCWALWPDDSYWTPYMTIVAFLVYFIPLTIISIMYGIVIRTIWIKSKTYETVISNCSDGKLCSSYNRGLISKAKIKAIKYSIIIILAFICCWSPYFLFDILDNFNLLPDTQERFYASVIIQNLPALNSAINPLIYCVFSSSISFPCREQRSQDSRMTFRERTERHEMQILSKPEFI

Row | SMILES | activity change, negative = inhibition | Potency
1 | CCOC(=O)c1cnc2cc(C)nn2c1-c1ccccc1 | inactive: -4.94% [at 46.1 µM] | 
2 | CCOc1ccccc1-c1nc(-c2ccncc2)no1 |  | inconclusive: 31.6 µM [inhibitor, single point]
3 | O=C(CC(Nc1ccccc1Cl)C(=O)OCC(=O)c1cccs1)c1ccccc1 (centres undefined) | inactive: -20.9% [at 46.1 µM] | 
4 | O=C(C1=C[C@@H](c2ccc(Br)cc2)C[C@@H](OCc2ccc(CO)cc2)O1)N1CCN(Cc2ccc3c(c2)OCO3)CC1 |  | inconclusive: 2.51 µM [activator, partial curve]
5 | CCOC(=O)C1CCN(C(c2cc3ccc(C)cc3[nH]c2=O)c2nnnn2C2CCCCC2)CC1 (centres undefined) | inconclusive: 37.6% [activator] [at 46.1 µM] | 
6 | COC(=O)c1c(-c2ccc(F)cc2)csc1NC(=O)C1CCCO1 (centres undefined) |  | inconclusive: 10 µM [inhibitor, single point]
7 | Cn1ncc2cc(NC(=S)NC(=O)c3ccccc3)ccc21 | inactive: -15.4% [at 46.1 µM] | 
8 | O=S(Cc1ccccc1)CC(O)(c1ccc(Cl)cc1)c1ccc(Cl)cc1 (centres undefined) |  | inconclusive: 12.6 µM [inhibitor, single point]
9 | COc1ccc(N(C(C)C(=O)N/N=C/c2ccc(OC(C)C)cc2)S(C)(=O)=O)cc1 (centres undefined) | inactive: -11.4% [at 46.1 µM] | 
10 | O=C(NC1CCCCC1)N1CCCCCC1 | inactive: 0.809% [at 46.1 µM] | 
11 | Fc1ccc(-c2nc3ccncc3[nH]2)cc1 | inactive: -1.47% [at 46.1 µM] | 
12 | CCOC(=O)c1sc2nccc(N(C)C)c2c1N=CNOCc1c(F)cccc1Cl |  | inconclusive: 12.6 µM [inhibitor, single point]
13 | NC(=O)c1ccc(-n2nnnc2Oc2ccccc2C(=O)N2CCOCC2)cc1 | inactive: -0.6% [at 46.1 µM] | 
14 | CC(=O)N1CCN(c2nnnn2-c2ccccc2)CC1 | inactive: -5.18% [at 46.1 µM] | 
15 | O=C(O)CSc1cc(C(=O)c2cc(F)ccc2O)cn2c(=O)c3c(-c4ccccc4)csc3nc12 |  | inconclusive: 12.6 µM [activator, partial curve]
16 | Cn1c(=O)cc(SCC(=O)NCC2CCCO2)c2ccccc21 (centres undefined) |  | inconclusive: 10 µM [inhibitor, single point]
17 | CCOC(=O)C(C(=O)NCCCN1CCOCC1)C1CCCCC1 (centres undefined) | inactive: -3.64% [at 46.1 µM] | 
18 | Cc1cc(C=O)c2c(c1)C=CC1(Oc3ccccc3C(=O)N1C)O2 (centres undefined) |  | inconclusive: 10 µM [inhibitor, partial curve]
19 | CC[C@@H](Nc1ncnc2c1oc1ccccc12)C(=O)O | inactive: 6.76% [at 7.67 µM] | 
20 | c1ccc(CCNc2ncnc3c2nnn3Cc2ccccc2)cc1 |  | inconclusive: 3.16 µM [inhibitor, partial curve]
21 | O=C(c1nnsc1S(=O)c1ccc(Cl)cc1)N1CCOCC1 (centres undefined) | inactive: -6.01% | 
22 | O=C(Cn1cncn1)N/N=C/c1cc([N+](=O)[O-])ccc1O | inactive: -15.6% | 
23 | O=C1c2ccccc2-c2onc3c(Oc4ccccc4)cc(O)c1c23 | inactive: -12.1% [at 46.1 µM] | 
24 | Cn1c(N)c(C(=O)COC(=O)c2cc(-c3ccccc3)nc3ccccc23)c(=O)n(Cc2ccccc2)c1=O | inactive: -7.63% | 
25 | N#Cc1nc(-c2ccco2)oc1N1CCN(C(c2ccccc2)c2ccccc2)CC1 |  | inconclusive: 15.8 µM [inhibitor, partial curve]

Row | SMILES | activity change, negative = inhibition | Potency
26 | CCSc1nc(C)cc(C)c1S(=O)(=O)c1ccccc1C |  | inconclusive: 12.6 µM [inhibitor, single point]
27 | O=C(CSc1ccccn1)Nc1ccc2ccccc2c1 | inactive: -10.1% | 
28 | COc1ccc(CN(C(=O)c2ccc3c(c2)OCCO3)C(C(=O)NC2CCCCC2)c2ccc3ncccc3c2)cc1 (centres undefined) |  | inconclusive: 10 µM [inhibitor, partial curve]
29 | Cc1ccc(C(C)C)c(Oc2nnnn2-c2ccccc2)c1 |  | inconclusive: 12.6 µM [inhibitor, single point]
30 | CCOC(=O)C1CCCN(C(=S)Nc2ccc(F)cc2)C1 (centres undefined) | inactive: -2.68% | 
31 | Cc1ccc(S(=O)(=O)c2nc(Nc3ccccc3N3CCOCC3)sc2Cl)cc1 |  | inconclusive: 12.6 µM [inhibitor, single point]
32 | CC(NCC(O)COc1ccc(S(=O)(=O)N2CCOCC2)cc1)c1ccccc1 (centres undefined) |  | inconclusive: 3.16 µM [inhibitor, single point]
33 | Cc1ccc(-c2csc3nc(C)n(-n4c(C)ccc4C)c(=O)c23)o1 | inactive: -14.5% [at 46.1 µM] | 
34 | COc1ccc(-[n+]2c(C)cc(/C=C3\Sc4ccccc4N3C)cc2C)cc1 |  | inconclusive: 12.6 µM [inhibitor, single point]
35 | O=C(Nc1nccs1)c1sc2ccccc2c1Cl | inactive: -0.45% [at 46.1 µM] | 
36 | Cn1c(=O)n(Cc2ccc(Cl)cc2)c(=O)c2c1nc1n2CCN1Cc1ccco1 |  | inconclusive: 25.1 µM [inhibitor, single point]
37 | NC(=S)c1cc2ccc(O)cc2oc1=O |  | active: 5.01 µM
38 | O=C(NC(=S)Nc1ccc(CN2CCOCC2)cc1)c1ccco1 | inactive: -2.9% | 
39 | O=C(CNC(=S)NC(=O)c1ccco1)c1ccccc1 | inactive: -3.63% [at 46.1 µM] | 
40 | CC(=O)O[C@]1(C(C)=O)CC[C@H]2[C@@H]3C=C(C)C4=CC(=O)CC[C@]4(C)[C@H]3CC[C@@]21C |  | active: 3.98 µM
41 | C=C(C)COc1ccc(-c2ncncc2Oc2ccc(OC)cc2)c(O)c1 |  | inconclusive: 0.251 µM [inhibitor, partial curve, poor fit]
42 | COC(=O)c1ccc(C2c3c(n[nH]c3C)C(=O)N2c2ccc(C)cc2)cc1 (centres undefined) |  | inconclusive: 0.501 µM [inhibitor, single point]
43 | Nc1c(S(=O)(=O)c2cccs2)c2nc3ccccc3nc2n1Cc1ccc2c(c1)OCO2 |  | inconclusive: 7.94 µM [inhibitor, partial curve]
44 | CCOC(=O)c1oc2ccccc2c1NC(=O)c1cccs1 |  | inconclusive: 12.6 µM [inhibitor, single point]
45 | C/C(=N\NC(=O)c1cnccn1)c1ccc([N+](=O)[O-])cc1 | inactive: -9.99% | 
46 | CC(=O)N1CCN(CC(=O)O)CC1 | inactive: 9.4% | 
47 | Cc1ccc(O)c(NC(=S)NC(=O)c2ccccc2Cl)c1 | inactive: -21.3% | 
48 | CC(C)CC(COCc1ccc(Cl)cc1)N1CCN(C(=O)c2ccc(Cl)cc2Cl)CCC1=O (centres undefined) |  | inconclusive: 10 µM [inhibitor, single point]
49 | COc1ccc(/C=N/NC(=O)CCCOc2ccc(Cl)cc2Cl)cc1[N+](=O)[O-] |  | inconclusive: 10 µM [inhibitor, partial curve]
50 | O=C(OCn1ncc(Cl)c(Cl)c1=O)c1cccc(C(F)(F)F)c1 |  | inconclusive: 12.6 µM [inhibitor, partial curve]

Row | SMILES | activity change, negative = inhibition | Potency
51 | COc1cc(C)ccc1OCCOc1c(C)cc(Cl)cc1Cl | inactive: -12.5% | 
52 | CCOC(=O)c1c(C)[nH]c(C(=O)N/N=C\c2ccccc2O)c1C | inactive: -10.8% | 
53 | On1onc2c3cc(-c4ccccc4)nc3ccc21 |  | active: 12.6 µM
54 | CC(C)(C)c1cc(S(=O)(=O)CCc2ccccn2)cc(C(C)(C)C)c1F |  | inconclusive: 25.1 µM [inhibitor, single point]
55 | O=C(CCN1CCC(c2ccccc2)C1)c1ccccc1 (centres undefined) | inactive: -1.68% [at 46.1 µM] | 
56 | O=C(Nc1nccs1)C1CCCN1S(=O)(=O)c1ccc(Cl)cc1 (centres undefined) |  | inconclusive: 3.98 µM [inhibitor, full curve]
57 | Cc1ccc(C(=O)NC(=S)Nc2ccc(Oc3ccc(Cl)cc3)cc2)cc1 |  | inconclusive: 20 µM [inhibitor, single point]
58 | CC(=O)Nc1ccc2nc(-c3cccnc3)[nH]c2c1 | inactive: 3.9% [at 46.1 µM] | 
59 | Cc1cccc(-n2nnnc2SC(C)C(=O)NCCC2=CCCCC2)c1 (centres undefined) |  | inconclusive: 25.1 µM [inhibitor, single point]
60 | CCOC(=O)c1sc(=S)n(C)c1NC(=O)c1ccc(C(C)(C)C)cc1 |  | inconclusive: 12.6 µM [inhibitor, single point]
61 | CSCc1c(C(=O)NC2CCCc3ccccc32)oc2ccccc12 (centres undefined) |  | inconclusive: 12.6 µM [inhibitor, single point]
62 | Cc1cccc(CC(=O)N2CCN=C2SCc2ccc([N+](=O)[O-])cc2)c1 |  | inconclusive: 12.6 µM [inhibitor, single point]
63 | CC(=O)Oc1c(C)cc(Cl)cc1C(=O)Nc1ccc([N+](=O)[O-])cc1Cl | inactive: -39.8% | 
64 | COc1ccccc1C1CCN(C(=O)c2cnn(-c3ccccc3)c2C)CC1 |  | inconclusive: 25.1 µM [activator, single point]
65 | CCCSc1nc(=O)n2cc(C)ccc2n1 |  | inconclusive: 12.6 µM [activator, partial curve, poor fit]
66 | COc1ccc2c(c1)c(CC(=O)OCC(=O)O)c(C)n2C(=O)c1ccc(Cl)cc1 | inactive: -12% | 
67 | COc1ccccc1NC(=O)CN(c1ccc(C)cc1)S(=O)(=O)c1c(C)n[nH]c1C |  | inconclusive: 25.1 µM [inhibitor, single point]
68 | Cc1nn(Cc2ccc(F)cc2)c(C)c1NC(=O)c1cnn2c1NC(c1ccccc1)CC2C(F)(F)F (centres undefined) |  | inconclusive: 12.6 µM [inhibitor, single point]
69 | O=C1CC(Nc2ccc(N3CCOCC3)cc2)C(=O)N1c1ccccc1F (centres undefined) | inactive: -20.9% [at 46.1 µM] | 
70 | CCSC(N)=Nc1ccc(C(F)(F)F)cc1 |  | inconclusive: 12.6 µM [activator, single point]
71 | COC(=O)[C@@H]1CC[C@H](C)[C@@H](c2ccc(C)cc2)N1C(=O)c1ccc(/C=N/O[C@@H](C)c2cn([C@H](CO)Cc3ccccc3)nn2)cc1 |  | inconclusive: 10 µM [inhibitor, single point]
72 | CCOC(=O)c1cccc(NC(=O)CCn2cccc2)c1 |  | inconclusive: 0.501 µM [inhibitor, full curve, poor fit]
73 | COc1cccc(/C=C2\N=C(SC)SC2=O)c1OC |  | inconclusive: 2.51 µM [inhibitor, full curve, poor fit]
74 | Cc1cc(C)n(-c2nc(SCCN(C)C)c3c4c(sc3n2)CCCC4)n1 |  | inconclusive: 12.6 µM [inhibitor, single point]
